Lines with a small IC50 respond at low doses; where the fit passes the top or lowest dose, that dose stands as a limit. AUC is the area under the same curve over the 256-fold range up to the top dose, as a fraction: 1 means no effect, lower means more sensitive. For part of these data: A top dose marked as inferred comes from the curve model; the source does not state it. For part of these data: An entry number marks a drug with two screens in the source, which often give different values.
Experiments:
Experiment in all cases: Viability of human cancer cell lines after 72 h of drug (GDSC screen)
[1] = compound: Cn1cnc2c(F)c(Nc3ccc(Br)cc3Cl)c(C(=O)NOCCO)cc21 [AZD6244]; conditions: top dose 4 µM; screen: GDSC drug entry 1498; top dose inferred
Description: (§1)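 Human cancer cell lines in 384-well plates, medium with 10% serum, drug for 72 h over a 256-fold dose range (nine 2-fold or five 4-fold steps up to the top dose). Adherent lines were fixed and stained with the nucleic acid dye Syto60, suspension lines read with resazurin; signal relative to control wells, capped at 0 and 100%. One two-parameter sigmoid per drug and line, fitted in a mixed model over all curves with the slope shared within a line.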

[2] = compound: N#CC(c1ccnc(NCCc2cccnc2)n1)c1nc2ccccc2s1 [AS601245]; conditions: top dose 8 µM; top dose inferred
Description: as §1

[3] = compound: NC(=O)C1CCCc2c1[nH]c1ccc(Cl)cc21 [EX-527]; conditions: top dose 20 µM
Description: as §1

[4] = compound: Nc1ccc(C(=O)Nc2cccc(-c3nc(N4CCOCC4)c4oc5ncccc5c4n3)c2)cn1 [YM201636]; conditions: top dose 5.12 µM; top dose inferred
Description: as §1

Cell Line	AUC [1]	IC50 [1] [µM]	AUC [2]	IC50 [2] [µM]	AUC [3]	IC50 [3] [µM]	AUC [4]	IC50 [4] [µM]
BPH-1 (prostate, adherent)	0.456	0.187	0.814	4.94	0.963	> 20	0.897	> 5.12
BT-20 (breast, adherent)	0.947	> 4	0.945	> 8	0.978	> 20	0.929	> 5.12
BT-483 (breast, adherent)	0.962	> 4	0.967	> 8	0.967	> 20	0.876	> 5.12
BxPC-3 (pancreas, adherent)	0.785	1.93	0.703	2.02	0.984	> 20	0.899	> 5.12
C3A (liver, adherent)	0.792	1.9	0.732	2.36	0.987	> 20	0.988	> 5.12
C32 (melanoma, adherent)	0.308	0.0693	0.877	> 8	0.978	> 20	0.987	> 5.12
C-4-I (cervix, adherent)	0.909	> 4	0.85	6.84	0.97	> 20	0.967	> 5.12
C-33-A (cervix, adherent)	0.747	1.29	0.707	1.92	0.971	> 20	0.756	1.76
CAKI-1 (kidney, adherent)	0.682	1.04	0.806	6.85	0.965	> 20	0.9	> 5.12
CAL-12T (non-small cell lung carcinoma, adherent)	0.834	3.04	0.649	1.36	0.96	> 20	0.867	> 5.12
CAL-27 (head and neck, adherent)	0.672	0.762	0.813	4.44	0.98	> 20	0.955	> 5.12
CAL-29 (bladder, adherent)	0.733	1.23	0.946	> 8	0.978	> 20	0.885	> 5.12
CAL-33 (head and neck, adherent)	0.607	0.492	0.91	> 8	0.978	> 20	0.944	> 5.12
CAL-39 (cervix, adherent)	0.539	0.321	0.849	6.39	0.974	> 20	0.979	> 5.12
CAL-51 (breast, adherent)	0.947	> 4	0.78	2.83	0.985	> 20	0.991	> 5.12
CAL-54 (kidney, adherent)	0.86	> 4	0.912	> 8	0.985	> 20	0.867	> 5.12
CAL-62 (thyroid, adherent)	0.518	0.279	0.845	5.39	0.97	> 20	0.955	> 5.12

Cell Line	AUC [1]	IC50 [1] [µM]	AUC [2]	IC50 [2] [µM]	AUC [3]	IC50 [3] [µM]	AUC [4]	IC50 [4] [µM]
CAL-72 (osteosarcoma, adherent)	0.915	> 4	0.751	3.05	0.983	> 20	0.983	> 5.12
CAL-85-1 (breast, adherent)	0.786	2.27	0.656	1.54	0.928	> 20	0.895	> 5.12
CAL-120 (breast, adherent)	0.923	> 4	0.93	> 8	0.981	> 20	0.897	> 5.12
CAMA-1 (breast, adherent)	0.975	> 4	0.928	> 8	0.961	> 20	0.925	> 5.12
CCF-STTG1 (glioma, adherent)	0.885	> 4	0.792	3.67	0.988	> 20	0.988	> 5.12
CCK-81 (large intestine, adherent)	0.989	> 4	0.886	7.91	0.99	> 20	0.871	4.33
CFPAC-1 (pancreas, adherent)	0.801	2.3	0.845	7.04	0.984	> 20	0.935	> 5.12
NCI-H1734 (lung adenocarcinoma, adherent)			0.824	5.4	0.983	> 20	0.948	> 5.12
NCI-H2052 (mesothelioma, adherent)			0.813	5.91	0.983	> 20	0.95	> 5.12
PA-1 (ovary, adherent)			0.636	1.08	0.9	15.7	0.858	2.83
PFSK-1 (medulloblastoma, adherent)			0.939	> 8	0.939	> 20	0.953	> 5.12
RPMI-7951 (melanoma, adherent)			0.843	5.43	0.985	> 20	0.903	> 5.12
SK-MEL-28 (melanoma, adherent)			0.941	> 8	0.986	> 20	0.901	> 5.12
SNU-475 (liver, adherent)			0.96	> 8	0.991	> 20	0.767	1.69
SW1417 (large intestine, adherent)			0.951	> 8	0.985	> 20	0.955	> 5.12
TMK-1 (stomach, adherent)			0.714	2.1	0.98	> 20	0.955	> 5.12
VMRC-RCW (kidney, adherent)			0.72	1.99	0.982	> 20	0.929	> 5.12

— the supplement of paper PMC4967469
